56 molecules from ChEMBL document CHEMBL4888484, “Replenishing the malaria drug discovery pipeline: Screening and hit evaluation of the MMV Hit Generation Library 1 (HGL1) against asexual blood stage Plasmodium falciparum ,using a nano luciferase reporter read-out” (2022) can be followed below.

Hit rate of the full screen: of about 150,000 compounds, about 540 (0.36%) showed an effect of 50% or more. Some of the results follow.

The experiment relates to Plasmodium falciparum. Briefly: Primary screen in NF54 nanoGlo assay, in single point, at 2uM, 72h; a lower Z score goes with more inhibition. The class given is functional, Erythrocyte. The note with it: timepoint 72 hour.
Take `Cc1nccn1CCN1C(=O)COc2ccc(F)cc21`: the “% Inhibition” value is reported as 9% and the Z score was -1.19.

On to `CCN(CC)c1ccc([C@H]2N(C(=O)C(F)(F)F)CCN2S(=O)(=O)c2ccccc2)cc1`, for which the “% Inhibition” value is listed as -5% and the Z score was found to be 0.83.

`N#Cc1ncn(CCCOc2ccc3c(c2)OCO3)n1`: the “% Inhibition” value is listed as -6% and the Z score is 0.84.

As for `CN1CCN(c2nc(N)nc(C3CCCCC3)n2)CC1`, the “% Inhibition” value is -1% and the Z score is 0.13.

As for `CN(C)c1cc(NC(=O)[C@@H]2C[C@H]3CC[C@@H]2O3)ccn1`, the “% Inhibition” value is -7% and the Z score turned out to be 1.31.

As for `Cc1ccccc1Nc1nc(N)nc(CN2CCOCC2)n1`, the “% Inhibition” value is -6% and the Z score worked out at 1.09.

With `CCN(C(=O)c1cc(C)cc(Br)c1)c1ccncc1`, the “% Inhibition” value is recorded as -8% and the Z score turned out to be 0.83.

On to `CC(C)CCOc1ccc(OCC(N)=O)cc1`, for which the “% Inhibition” value was -13% and the Z score is given as 1.12.

As for `CC1CN(Cc2cc(=O)n(C)c(=O)n2C)C(C)CO1` (configuration not stated), the “% Inhibition” value is given as -7% and the Z score is recorded as 1.47.

As to `CN1CCN(C(=O)c2ccc(Cl)o2)c2ccccc2C1`, the “% Inhibition” value was -19% and the Z score is 2.06.

Regarding `CCc1nn(C)c2c(=O)n(CCCN3CCCC3=O)cnc12`, the “% Inhibition” value is on record as -14% and the Z score is listed as 1.49.

For `CC(=O)N1CC[C@H]2COC(=O)N2c2ccccc2C1`, the “% Inhibition” value was 26% and the Z score is -2.99.

`OCCC[C@@H]1CN(Cc2[nH]c3ccccc3c2Cl)CC[C@@H]1N1CCOCC1`: the “% Inhibition” value was determined as 6% and the Z score is given as -1.09.

On to `Nc1nc2c(c(C(=O)NCc3cccnc3N)n1)CCCC2`, for which the “% Inhibition” value was -4% and the Z score came out at 0.77.

For `CC(C)c1ccc(C(=O)N2C[C@@H]3NC(=O)c4ncccc4OCCn4cc(nn4)CO[C@H]3C2)c(=O)n1C`, the “% Inhibition” value is -4% and the Z score is recorded as 0.44.

Take `COCCNC(=O)CCc1c(C)[nH]c2c3c(F)cccc3nn2c1=O`: the “% Inhibition” value is listed as -12% and the Z score is 1.39.

Turning to `CC1(C)COc2c(S(=O)(=O)Nc3cc(F)cc(F)c3)cnn2C1`, the “% Inhibition” value was 2% and the Z score was -0.18.

Take `O=S(=O)(Cc1ccccc1)NC1CC1c1ccccc1` (configuration not stated): the “% Inhibition” value is reported as -2% and the Z score stood at 0.17.

As for `O=C(c1ccc2noc(-c3ccccc3)c2c1)N1CC[C@H](Oc2cnsn2)C1`, the “% Inhibition” value was -6% and the Z score was found to be 1.13.

As for `CNc1ncccc1C(=O)N1CC[C@@]2(CN(C)C(=O)CO2)C1`, the “% Inhibition” value is reported as -12% and the Z score was 2.05.

For `CCCNc1ncc(CN2C[C@H](CCC)[C@@H](N(C)C)C2)cn1`, the “% Inhibition” value stood at 5% and the Z score is recorded as -0.67.

For the molecule `Cc1cnn(CCNCc2sccc2C)c1`, the “% Inhibition” value was -5% and the Z score was 0.69.

Turning to `CC1(C)CN(C(=O)NC2CC=CC2)CC(C)(C)O1`, the “% Inhibition” value is -1% and the Z score is 0.07.

Take `Cc1ccc(S(=O)(=O)N[C@@H](CC(C)C)CN(C)C)o1`: the “% Inhibition” value is -4% and the Z score is given as 0.57.

`CN(Cc1n[nH]c2c1CCCCC2)C(=O)CN1CCCCCC1=O`: the “% Inhibition” value is on record as -8% and the Z score was 1.51.

With `COc1ccc(CNC(=O)N2CC[C@H](CCOc3ccc(C)cc3)C2)cc1`, the “% Inhibition” value is -12% and the Z score is on record as 2.36.

`O=C(NCc1cc(F)cc(F)c1)c1cc2n(n1)CCCC2`: the “% Inhibition” value was -4% and the Z score amounted to 0.46.

As to `Cc1ncnc(OCC2CCN(C(=O)c3cscn3)CC2)c1C`, the “% Inhibition” value is on record as 7% and the Z score is given as -0.85.

As for `O=C(CCCn1cccn1)Nc1nnc[nH]1`, the “% Inhibition” value is given as -12% and the Z score is recorded as 1.25.

Take `O=C(N[C@H](c1ccccc1)C1CC1)c1cc(C2CC2)[nH]n1`: the “% Inhibition” value is -5% and the Z score turned out to be 0.85.

For the molecule `CC(N1C(=O)C2CCCCCN2C1=O)C(C)(C)C` (configuration not stated), the “% Inhibition” value was -12% and the Z score is recorded as 1.66.

On to `Cc1ccc([C@H](CCO)Nc2nc3c(s2)c(C)nn3C)cc1`, for which the “% Inhibition” value came to 1% and the Z score is -0.12.

On to `COc1cccc(C2C(C(=O)NCc3ccco3)c3ccccc3C(=O)N2C2CC2)c1` (configuration not stated), for which the “% Inhibition” value turned out to be 9% and the Z score is -0.97.

Regarding `O=C1N[C@@H]2c3ccc(Cl)cc3C(=O)N2c2ccccc21`, the “% Inhibition” value was -5% and the Z score amounted to 0.57.

With `CCCOc1ccc(CCNC(=O)N2CCN(C)CC2)cc1`, the “% Inhibition” value was -18% and the Z score is reported as 1.6.

Take `CCC1(C(=O)NCC[C@H]2CCCNC2)CCCC1`: the “% Inhibition” value was -3% and the Z score was 0.38.

In the case of `CC(=O)NCCc1nc(Cc2cccs2)nn1CC(C)(C)O`, the “% Inhibition” value was -22% and the Z score is reported as 2.31.

In the case of `O=S(=O)(c1ccccc1)N(c1ccccc1)C1CCCC1`, the “% Inhibition” value is on record as -2% and the Z score is recorded as 0.29.

For the molecule `COc1ccc(NC(=O)c2ccccc2NC(=O)CN(C)CC(=O)NC2CC2)cc1`, the “% Inhibition” value is -12% and the Z score amounted to 2.13.

With `Cc1cc(-c2cccc(C(F)(F)F)c2)c(=O)[nH]n1`, the “% Inhibition” value was -8% and the Z score came out at 1.37.

On to `COC(=O)c1c(C)n(S(C)(=O)=O)c2ccc(N(C(C)=O)S(C)(=O)=O)cc12`, for which the “% Inhibition” value is reported as -14% and the Z score stood at 1.89.

Turning to `C#CC(CC)(CC)NS(=O)(=O)c1ccc(OC)c(OC)c1`, the “% Inhibition” value turned out to be 2% and the Z score is recorded as -0.49.

For `CC(O)CN1CCN(C(C)C(=O)NCCC2=CCCCC2)CC1C` (configuration not stated), the “% Inhibition” value is -8% and the Z score is recorded as 0.92.

Regarding `Cc1cc(NC(=O)c2ccncc2)cc2c1OCCO2`, the “% Inhibition” value came out at 37% and the Z score was -4.76.

In the case of `Cc1cccn2c(NC(=O)[C@H](C3CC3)N3CCCC3)cnc12`, the “% Inhibition” value is -24% and the Z score is listed as 2.61.

On to `CCn1nc(C)c(-c2ccnc(NCCc3nc4ccccc4n3CC)n2)c1C`, for which the “% Inhibition” value was -17% and the Z score came out at 1.51.

As for `Cc1cccc(CN2CCN(C(=O)NCC3CCCCC3)[C@@H](C)C2=O)c1`, the “% Inhibition” value is on record as -7% and the Z score stood at 0.66.

Consider `O=C(c1onc2c1CCCC2)N1CCC[C@H]1c1ccn[nH]1`, for which the “% Inhibition” value was -10% and the Z score is listed as 1.89.

Turning to `Cc1cc2c(cc1C)N(CC(=O)Nc1ccc(C(F)(F)F)cc1)C(=O)CC(c1cccs1)=N2`, the “% Inhibition” value is 46% and the Z score is -5.17.

As to `Cc1cc(Cl)ccc1NC(=O)N1CCN(c2ncccc2-c2nnc(C(C)C)o2)CC1`, the “% Inhibition” value is -4% and the Z score came to 0.42.

`O=C(Nc1nc2c(Cl)c(Cl)ccc2s1)[C@@H]1CC=CCC1`: the “% Inhibition” value is -10% and the Z score is reported as 1.55.

Take `Cc1noc(C)c1CC(=O)N1CCC[C@H](Oc2ccncn2)C1`: the “% Inhibition” value worked out at 0% and the Z score was -0.07.

In the case of `COCCNC(=O)C1Cc2ccccc2N2CCOCC12` (configuration not stated), the “% Inhibition” value is -3% and the Z score is 0.51.

Turning to `COc1cc([C@H]2CC(=O)Nc3c2c(=O)[nH]n3C2CCCC2)ccc1O`, the “% Inhibition” value was found to be 33% and the Z score was -3.76.

Take `CC(=O)N[C@H]1C[C@@H](c2ccccc2-c2ccccc2)O[C@@H](C(C)C)C1`: the “% Inhibition” value is 11% and the Z score was -1.51.

For `O=C(c1cc2ccccc2[nH]1)N1C[C@@H]2CC[C@H]1CN(Cc1ccccn1)C2`, the “% Inhibition” value is -4% and the Z score was 0.66.
